{
  "source": "PubChem BioAssay AID1347120",
  "about": "(National Center for Advancing Translational Sciences (NCATS), 2019)",
  "note": "Among all 390,000 compounds or so, about 930 (0.24%) were called active. The inconclusive results got no clear call from the source; some entries with a clear call stand among them for comparison. Calls come from the whole dose curve; as a rule, active = well fitted activation curve with a large enough effect; inconclusive = small, poorly fitted or top-dose-only effect; inactive = no such curve, though single readings can be large or run the other way. A potency beside an inconclusive call is a rough fit, not a confirmed value. Potency is the fitted concentration of half-maximal effect; tags give direction and shape of the fitted curve.",
  "data": [
    {"test": "qHTS for Suppressors of FUS Proteinopathy: Primary screen using FUS-linked yeast assay; note: nearly all actives have a fitted effect of over 55% in size", "conditions": "S. cerevisiae FUS-expressing, OD600, 24 h; Potency: growth rescue; series mostly up to 76.6 µM", "in_short": "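Cultures pregrown in 2.5% raffinose medium are shifted to minimal medium containing 2% galactose to express toxic FUS. Compounds are tested at several concentrations. After 24hr at 30C, growth is quantified at 600 nm absorbance.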", "values": [
      {"smiles": "COc1ccc(NC(=O)C(c2ccnc3ccccc23)n2c(=O)c(-c3ccccc3)nc3ccccc32)cc1", "note": "(configuration not stated)", "Potency": "inconclusive: 28.2 µM [activator, partial curve, poor fit]"},
      {"smiles": "CCc1cc(-c2n[nH]c(C)c2-c2ccccc2Cl)c(O)cc1OC", "Potency": "inconclusive: 35.5 µM [activator, single point]"},
      {"smiles": "Cc1ccc(-c2noc(CNC(=O)COc3ccccc3C)n2)cc1", "Potency": "inconclusive: 35.5 µM [activator, partial curve, poor fit]"},
      {"smiles": "CCc1nnc2c(N3CCN(c4cccc(C(F)(F)F)c4)CC3)nc3ccccc3n12", "Potency": "inactive"},
      {"smiles": "Cc1ccc(C)n1-c1sc2c(c1C(=O)O)CCCC2", "Potency": "inactive"},
      {"smiles": "CC[C@]12c3[nH]c4cc(CCC(=O)N(C)C)ccc4c3CCN1C(=O)[C@@H](CC(=O)NCC13CC4CC(CC(C4)C1)C3)C[C@@H]2C(=O)N1CCN(C(=O)C2CC2)CC1", "Potency": "inconclusive: 12.6 µM [activator, partial curve, poor fit]"},
      {"smiles": "O=C(NC1CCCCC1)C(c1ccccc1)N(Cc1ccc2c(c1)OCO2)C(=O)c1cnsn1", "note": "(configuration not stated)", "Potency": "inconclusive: 7.08 µM [activator, full curve]"},
      {"smiles": "CN1CCOC(c2ccccc2)c2ccccc2C1", "note": "(configuration not stated)", "Potency": "inactive"},
      {"smiles": "COc1ccc2nc3oc(C(=O)N4CC(C)CC(C)C4)cc3cc2c1", "note": "(configuration not stated)", "Potency": "inactive"},
      {"smiles": "C=CC[C@@H](CC(=O)N[C@H](CO)Cc1ccccc1)C(=O)N[C@H](COC(=O)[C@@H](CC=C)Cc1ccc(F)cc1)Cc1ccccc1", "Potency": "inconclusive: 5.01 µM [activator, full curve]"},
      {"smiles": "COC1=C[C@H](C(=O)NCc2ccc(Br)cc2)C(C)C(c2ccccc2)CC1=O", "note": "(some centres not stated)", "Potency": "inconclusive: 22.4 µM [activator, partial curve, poor fit]"},
      {"smiles": "O=C(NCc1ccc(Cl)c(Cl)c1)c1cc(C2CCCCN2C(=O)c2cccs2)on1", "note": "(configuration not stated)", "Potency": "inconclusive: 14.1 µM [activator, partial curve, poor fit]"},
      {"smiles": "N#CC1=C2N=C(N)c3ccccc3N2C2=C(C(=O)CCC2)C1c1ccc(Cl)cc1", "note": "(configuration not stated)", "Potency": "inconclusive: 28.2 µM [activator, single point]"},
      {"smiles": "Cc1nc2ccccc2c(=O)n1NC(=O)c1cncc(Br)c1", "Potency": "inconclusive: 10 µM [activator, single point]"},
      {"smiles": "Cc1cc(N2C(=O)C(O)=C(C(=O)c3ccco3)C2c2ccc([N+](=O)[O-])cc2)no1", "note": "(configuration not stated)", "Potency": "inconclusive: 35.5 µM [activator, single point]"},
      {"smiles": "CSc1ccccc1NC(=O)N1CCCC(C(=O)c2ccc3c(c2)OCO3)C1", "note": "(configuration not stated)", "Potency": "inactive"},
      {"smiles": "COC(=O)[C@H]1C[C@H](OC(=O)NCC2CCCCC2)[C@@]2(O)CN(S(=O)(=O)c3ccc(C)cc3)CC2[C@H]1C(=O)OC", "note": "(some centres not stated)", "Potency": "inconclusive: 31.6 µM [activator, single point]"},
      {"smiles": "CCOc1ccc2[nH]c(C)c(CN3CCN(C)CC3)c(=O)c2c1", "Potency": "inactive"},
      {"smiles": "O=C(Nc1nc2n(n1)C(c1ccccc1)C=C(c1ccccc1)N2)c1ccccc1", "note": "(configuration not stated)", "Potency": "inconclusive: 50.1 µM [activator, single point]"},
      {"smiles": "C#CCOCCOCCOCCNc1nc(N2CCN(C(=O)[C@H](C(C)C)n3cc(CCO)nn3)CC2)nc(N2CCN(C(=O)[C@H](CCCCN)n3cc(CCCC)nn3)CC2)n1", "Potency": "inconclusive: 28.2 µM [activator, partial curve, poor fit]"},
      {"smiles": "O=C1CC(c2ccco2)Cc2nc(N3CCc4ccccc4C3)ncc21", "note": "(configuration not stated)", "Potency": "inconclusive: 28.2 µM [activator, partial curve, poor fit]"},
      {"smiles": "Cc1ccc(C)c(CN2C(=O)c3ccccc3S(=O)(=O)c3ccc(C(=O)Nc4cc(F)ccc4F)cc32)c1", "Potency": "inconclusive: 15.8 µM [activator, partial curve, poor fit]"},
      {"smiles": "C#CCN(C[C@@H]1[C@@H](OC(=O)NCc2ccccc2)[C@@H](OC(=O)NCc2ccccc2)CN(C(=O)OC(C)C)N1C(=O)OC(C)C)S(=O)(=O)c1ccc(C)cc1", "Potency": "inconclusive: 6.31 µM [activator, full curve]"},
      {"smiles": "CN(C)c1ccc(/C=[N+](\\[O-])C2N(c3ccccc3)C(=S)SC2(C)C)cc1", "note": "(configuration not stated)", "Potency": "inconclusive: 2.82 µM [activator, full curve, poor fit]"},
      {"smiles": "N#CCc1nc2ccc(S(=O)(=O)N3CCOCC3)cc2s1", "Potency": "inconclusive: 4.47 µM [activator, full curve, poor fit]"},
      {"smiles": "CC1CN(c2nc3ccccc3nc2SCC(=O)N2CCN(S(=O)(=O)c3ccc(F)cc3)CC2)CC(C)O1", "note": "(configuration not stated)", "Potency": "inconclusive: 17.8 µM [activator, partial curve, poor fit]"},
      {"smiles": "CCOC(=O)[C@]12CCCC=C1N(Cc1ccco1)C(=O)[C@H](CC(=O)NCCCCc1ccccc1)C2", "Potency": "inconclusive: 15.8 µM [activator, partial curve, poor fit]"},
      {"smiles": "CC(C)CC(=O)NC(=S)NNC(=O)c1ccc([N+](=O)[O-])cc1", "Potency": "inactive"},
      {"smiles": "CCC(Sc1nc2cc(OC)c(OC)cc2c(=O)n1CCc1ccc(S(N)(=O)=O)cc1)C(=O)NCCOC", "note": "(configuration not stated)", "Potency": "inconclusive: 44.7 µM [activator, single point]"},
      {"smiles": "O=C(C(=Cc1ccc(O)cc1)c1ccccc1)c1ccccc1", "Potency": "inconclusive: 48.5 µM [activator, single point]"},
      {"smiles": "CCOC(=O)C1=NN(C(=O)c2ccc(OC)cc2)C(O)(c2ccc(Cl)cc2)C1", "note": "(configuration not stated)", "Potency": "inconclusive: 10 µM [activator, partial curve]"},
      {"smiles": "O=C(N1CCc2[nH]c3ccccc3c2C1)C(F)(F)F", "Potency": "inactive"},
      {"smiles": "CCN1C(=O)CSC1=Nc1ccc(Cl)c(Cl)c1", "Potency": "inactive"},
      {"smiles": "Cc1ccc2ncc(S(=O)(=O)c3ccccc3)c(N3CCCCC3C)c2c1", "note": "(configuration not stated)", "Potency": "inconclusive: 50.1 µM [activator, single point]"},
      {"smiles": "Cc1ccc(S(=O)(=O)N(C)c2ccc(OCC(=O)Nc3cccc(-n4cnnn4)c3C)cc2)cc1", "Potency": "inconclusive: 35.5 µM [activator, single point]"},
      {"smiles": "Cc1cccc(CCN=C(N)NS(=O)(=O)c2ccccc2)c1", "Potency": "inactive"},
      {"smiles": "CC(C)(C)[C@H]1COC(=O)[C@H](NC(=O)OCC2c3ccccc3-c3ccccc32)C/C=C\\C[C@@H](CC(=O)N[C@@H](CO)Cc2ccccc2)C(=O)N1", "Potency": "inconclusive: 50.1 µM [activator, single point]"}
    ]}
  ]
}
